# Laboratory results reported in PMC4336329 (PLoS ONE, 2015).
# Out of some 310,000 compounds screened, about 14,000 (4.5%) showed an effect of 50% or more. The effect is printed as a negative number. The list shows a part of the results.
# Molecular target: human ether-à-go-go-related gene (hERG) potassium channel (human, UniProt Q12809)
# Test: primary screen, population patch clamp on CHO cells stably expressing hERG
# 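Also: peak tail current of the secondary pulse compared with the same well before compound.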
# human ether-à-go-go-related gene (hERG) potassium channel, sequence (Q12809 whole entry, looked up): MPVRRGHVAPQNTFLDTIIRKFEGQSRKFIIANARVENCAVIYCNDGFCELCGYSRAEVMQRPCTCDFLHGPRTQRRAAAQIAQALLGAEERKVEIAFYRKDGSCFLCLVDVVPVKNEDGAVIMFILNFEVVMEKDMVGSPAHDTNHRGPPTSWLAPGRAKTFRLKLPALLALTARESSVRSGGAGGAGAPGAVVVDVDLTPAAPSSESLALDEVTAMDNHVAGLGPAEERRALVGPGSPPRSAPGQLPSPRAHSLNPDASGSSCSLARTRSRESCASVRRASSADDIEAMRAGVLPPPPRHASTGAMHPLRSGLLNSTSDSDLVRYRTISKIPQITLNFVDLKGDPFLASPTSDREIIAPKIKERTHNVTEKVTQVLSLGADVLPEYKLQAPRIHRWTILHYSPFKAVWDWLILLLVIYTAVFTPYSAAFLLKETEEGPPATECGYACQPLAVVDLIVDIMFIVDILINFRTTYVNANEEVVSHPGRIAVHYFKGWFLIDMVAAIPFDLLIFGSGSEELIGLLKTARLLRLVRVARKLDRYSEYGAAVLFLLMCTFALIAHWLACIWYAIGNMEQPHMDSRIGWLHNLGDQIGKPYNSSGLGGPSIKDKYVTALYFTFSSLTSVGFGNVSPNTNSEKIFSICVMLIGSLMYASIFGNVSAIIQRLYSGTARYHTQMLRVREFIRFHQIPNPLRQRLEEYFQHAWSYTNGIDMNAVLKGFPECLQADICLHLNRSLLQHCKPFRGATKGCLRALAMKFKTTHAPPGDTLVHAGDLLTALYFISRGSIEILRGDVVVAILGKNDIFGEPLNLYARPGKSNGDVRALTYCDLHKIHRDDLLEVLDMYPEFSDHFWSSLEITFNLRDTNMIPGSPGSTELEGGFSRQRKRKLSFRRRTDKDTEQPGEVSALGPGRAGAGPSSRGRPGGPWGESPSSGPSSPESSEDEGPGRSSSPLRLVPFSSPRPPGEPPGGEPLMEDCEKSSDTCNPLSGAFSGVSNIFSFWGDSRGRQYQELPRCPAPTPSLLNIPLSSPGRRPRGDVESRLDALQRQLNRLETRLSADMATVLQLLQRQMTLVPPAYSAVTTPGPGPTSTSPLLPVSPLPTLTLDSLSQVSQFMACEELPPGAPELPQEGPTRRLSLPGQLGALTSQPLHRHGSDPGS
row,SMILES,"hERG current change (%, negative = inhibition) at 10uM"
1,Cc1ccc2nc(-c3cccc(-c4cccc(Cl)c4)c3)c(NCc3ccccc3)n2c1.O=C(O)C(F)(F)F,16.3%
2,CCn1c(=O)c2cc(C(=O)Nc3cccc(C(C)=O)c3)sc2c2ccccc21,-3.05%
3,O=C(CSc1nc2[nH]ncc2c(=O)[nH]1)Nc1ccc(F)cc1,13.6%
4,CCOC(=O)CNS(=O)(=O)c1c(C)noc1C,1.95%
5,Cc1ccc(NC(=S)NC2CCCCC2)cc1S(=O)(=O)N(C)C,-36.8%
6,CCOc1ccccc1N(C)C(=O)c1nn(-c2ccc(OC)cc2OC)c(=O)c2ccccc12,-25.6%
7,CCCCN(C(=O)CSc1cc(C)c2ccc(OC)cc2n1)c1c(N)n(Cc2ccccc2)c(=O)[nH]c1=O,-11.1%
8,O=C(COC(=O)c1ccco1)NCC1CCCO1 (stereo not drawn),-16.4%
9,C/C(=N\NC(=O)Cc1ccccc1)c1ccc(Br)s1,20.3%
10,CN(C)CCN(Cc1ccccc1)C(=O)[C@H](Cc1ccccc1)N1C(=O)c2ccccc2C1=O,-30.1%
11,O=S(=O)(Nc1ccc(-c2ccc3nncn3n2)cc1)c1ccccc1F,7.03%
12,N#CC1(NC(=O)COC(=O)C23CC4CC(CC(O)(C4)C2)C3)CCCCC1,4.38%
13,CC(=O)N1CC(=O)N(CC(=O)Nc2ccc(Br)cc2)C1=S,12.3%
14,CNC(=S)Nc1cccc(C(=O)O)c1,38.1%
15,CCN(CC)S(=O)(=O)c1ccc(NC(=O)C2COc3ccccc3O2)cc1 (stereo not drawn),1.61%
16,Brc1ccccc1OCCN1CCCC1,-1.74%
17,Cc1cccc2c1-c1sc(C(=O)Nc3nccs3)cc1CO2,-2.96%
18,Cc1cc(C)nc(SCCC(=O)Nc2ccccc2C)n1,21.8%
19,Oc1ccc(-n2cccc2/C=N/n2cnnc2)cc1,13.8%
20,Cc1ccc(S(=O)(=O)N(C)c2ccc(OCC(=O)Nc3nc(-c4ccccc4)cs3)cc2)cc1,14.3%
21,CS(=O)(=O)c1ccc(Cl)c(NC(=O)CSc2nnc(-c3cccs3)n2N)c1,11.4%
22,COc1cc(C(=O)NC2CC(C)(C)Cc3c2cnn3-c2ccccc2)cc(OC)c1OC (stereo not drawn),8.92%

row,SMILES,"hERG current change (%, negative = inhibition) at 10uM"
1,Cc1cc(NC(=O)CSc2nc3cc(Cl)ccc3c(=O)n2Cc2ccco2)no1,29.8%
2,CCc1ccccc1Nc1nc2ccccc2n1C,-18.1%
3,CC(=O)Nc1ccc(NC(=O)COc2ccc(S(=O)(=O)NC(C)c3ccccc3)cc2)cc1 (stereo not drawn),44.6%
4,Cc1ccc(NC(=O)c2cccc(N3C(=O)CCC3=O)c2)nc1,3.86%
5,O=C(NC(=S)Nc1ccc(N2CCCCC2)cc1)c1cccs1,2.04%
6,Cc1cc(C(=O)OCC(=O)Nc2cc(C)on2)c2ccccc2n1,-3.21%
7,Cc1c(NC(=O)C(C)OC(=O)c2ccc(Cl)nc2)c(=O)n(-c2ccccc2)n1C (stereo not drawn),-2.18%
8,O=S(=O)(c1ccc2ccccc2c1)N1CCN(C(=S)Nc2ccc(F)cc2)CC1,-3.88%
9,O=C(Nc1sc2c(c1C(=O)O)CCCC2)C(=O)N1CCOCC1,35%
10,COc1ccc(C)c(Cn2c(-c3nonc3N)nc3ccccc32)c1,0.531%
11,CCN(CC)C(=O)Oc1ccc(Br)c2ccccc12,-13.7%
12,O=C(C[n+]1ccc(C(=O)NCCCO)cc1)c1cccc(Br)c1.[Br-],11.4%
13,O=C(NCCCN1CCOCC1)C(=O)N/N=C/c1ccccc1,-20.2%
14,Cc1cc(S(=O)(=O)NCCCN2CCOCC2)ccc1F,-4.52%
15,CCC/C=N/NC(=O)C1COc2ccccc2O1 (stereo not drawn),9.6%
16,Cc1ccc(C(=O)N/N=C\c2ccc(Br)o2)o1,5.26%
17,O=C(CSc1nc2ncccc2[nH]1)NCc1ccco1,6.5%
18,O=C1CCCC2=C1C(c1cccs1)Nc1ccc3ncccc3c12 (stereo not drawn),-1.86%
19,CSc1ccccc1C(=O)NCCCOC(C)C,6.42%
20,O=C(O)CSc1nc2c(cnn2-c2ccccc2)c(=O)n1-c1ccc(Br)cc1,6.84%
21,COc1ccc(OC)c(NC(=O)CSc2nnc(CNC(=O)COc3ccc(Cl)cc3)o2)c1,-60.1%
22,Cc1noc(NS(=O)(=O)c2ccc(NC(=O)c3ccc(N4C(=O)c5ccccc5C4=O)cc3)cc2)c1C,25.9%

row,SMILES,"hERG current change (%, negative = inhibition) at 10uM"
1,COc1cccc2cc(C(=O)NCCN3CCOCC3)c(=O)oc12,12.9%
2,Cc1c(C(=O)Nc2ccc(F)cc2)oc2ccc(S(=O)(=O)N3CCC4(CC3)OCCO4)cc12,-4.85%
3,Cc1cc(NC(=O)Cn2nc(C(F)(F)F)c3c2CCC3)no1,20%
4,O=C(NCc1ccoc1)c1ccc(NC(=O)c2ccccc2Cl)cc1,8.89%
5,Cc1ccc(C(=O)N(Cc2nnc(-c3ccc(Cl)cc3)o2)C2CC2)o1,-32.6%
6,C=CCNC(=O)c1ccc(C(=O)c2ccccc2)cc1,-27.8%
7,Cc1ccccc1OCc1n[nH]c(=S)n1-c1cccc(Cl)c1,20.3%
8,Cc1csc(N(C(=O)c2ccc(S(=O)(=O)N(C)C)cc2)c2ccccc2)n1,2.84%
9,CCCCn1c(O)c(N=Nc2ccccn2)c2ccccc21,7.6%
10,COc1cccc(N2CCN(S(=O)(=O)c3ccc(-c4coc(C)n4)cc3)CC2)c1,16.5%
11,COC(=O)c1ccc(-c2n[nH]c(=O)c3ccccc23)cc1,-6.97%
12,O=C(/C=N/O)Nc1ccccc1C(=O)O,-13.7%
13,CC1CCCN(C(=O)COC(=O)c2n[nH]c3ccccc23)C1 (stereo not drawn),-11.5%
14,Cc1ccc(CSC2=NCCN2C(=O)C(C)Oc2ccccc2)cc1 (stereo not drawn),5.99%
15,Cc1cc(NC(=O)C2C3C(=O)N(CC4CCCO4)C(C(=O)NC(C)(C)C)C34C=CC2(C)O4)no1 (stereo not drawn),7.22%
16,N#Cc1c(C(F)(F)F)cc(-c2ccc(Cl)cc2)nc1SCC(=O)O,4.82%
17,O=C(CC(C(=O)O)c1c[nH]c2ccccc12)c1ccccc1 (stereo not drawn),26.2%
18,C=CCNc1nc(-c2sc(NC(C)=O)nc2C)cs1,-2.04%
19,O=S(=O)(Nc1ccc(O)c(NS(=O)(=O)c2ccccc2)c1)c1ccccc1,5.67%
20,COCC(C)NC(=O)CSc1nc2ccccc2c(=O)n1CCc1ccc(S(N)(=O)=O)cc1 (stereo not drawn),7.52%
21,O=Cc1cccc(Oc2ccc([N+](=O)[O-])cc2[N+](=O)[O-])c1,-55%
22,C[C@@H](C(=O)NCC1CC1)[C@@H]1C[C@@]1(C)[C@@H](NC(=O)OCc1ccccc1)c1ccccc1,-34.6%

row,SMILES,"hERG current change (%, negative = inhibition) at 10uM"
1,Cc1cc(C)c(S(=O)(=O)c2ccccc2)c(OC(=O)c2c(Cl)cc(Cl)cc2Cl)n1,-8.9%
2,Cc1c(C(=O)N/N=C/C(C)C)[nH]c2c([N+](=O)[O-])cccc12,10.4%
3,Cc1c(Cl)cccc1NC(=S)N1CC2CC(C1)c1cccc(=O)n1C2 (stereo not drawn),-4.67%
4,Cc1cc(C)c(S(=O)(=O)N(CC(=O)O)CC(=O)O)c(C)c1,6.78%
5,CCC(C)Sc1ccc([C@H]2N[C@@](CC(C)C)(C(=O)OC)[C@H]3C(=O)N(C)C(=O)[C@@H]23)cc1.O=C(O)C(F)(F)F (stereo partly drawn),-41.8%
6,COC(C(=O)Nc1ccc(S(=O)(=O)Nc2cccc3ccccc23)cc1)c1ccccc1 (stereo not drawn),-0.5%
7,CCCC(C)n1[nH]c(=O)cc1N (stereo not drawn),14.2%
8,O=C(CN1CCc2ccccc2C1)NC1CCCC1,8%
9,Cc1cc(NC(=O)CSc2nc3ccsc3c(=O)n2Cc2ccccn2)n[nH]1,-1.55%
10,CCOC(=O)c1c(C)c(-c2ccccc2)n(CC(=O)NCCCN(CC)CC)c1C,-12.6%
11,O=C(NCc1ccc(F)cc1)Nc1cccc(Cl)c1,25.3%
12,COc1cccc(NC(=S)N2CCN(S(C)(=O)=O)CC2)c1,10.3%
13,Clc1ccccc1N1CCN(Cc2ccc3c(c2)OCO3)CC1.O=C(O)C(=O)O,-7.35%
14,O=C(c1ccc(N2CCCCC2)c([N+](=O)[O-])c1)N(c1ccccn1)c1ccccn1,5.73%
15,CCOC(=O)C1CCCN(CC(=O)Nc2c(C(=O)OC)[nH]c3ccccc23)C1 (stereo not drawn),-25.2%
16,NC(=O)C1(N2CCCCC2)CCN(C(=O)CSc2nc3ccccc3[nH]2)CC1,7.81%
17,Cc1noc(C)c1COc1ccc(C(=O)N2CCCC(C(F)(F)F)C2)cc1 (stereo not drawn),-18.8%
18,CCOC(=O)c1oc2nc(CC(C)C)c3c(c2c1N)CCC3,7.9%
19,CC(Oc1ccc(Cl)cc1)C(=O)Nc1ccc(S(=O)(=O)N2CCOCC2)cc1 (stereo not drawn),-19.1%
20,COc1ccc(CC(=O)OCN2C(=O)c3ccccc3C2=O)cc1,3.16%
21,CCc1c(C)nc2ncnn2c1Nc1ccc(C#N)c(Cl)c1,-50.6%
